Data taken from the supplement of paper PMC11417369.
The list shows a part of the results.

System: PfAP2-HC AP2 domain (GST-tagged)
Test: gcPBM binding intensity (ln(normalized median fluorescence intensity)); higher = stronger DNA binding
Method in brief: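 After 1 h on an Agilent 4 × 180k array of primer-extended double-stranded 36-bp intergenic genomic probes and negative controls, bound GST-tagged P. falciparum DNA-binding domains were detected with Alexa488 anti-GST antibody and scanned at 488 nm. The domains had been expressed in E. coli, and binding took place in 1× PBS with 1% milk, 0.2 mg/ml BSA, 0.5% salmon testes DNA and 0.03% Triton X-100. Binding intensity is the highest Masliner-normalised natural-log median intensity across replicate spots of either probe orientation.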

Row | Sequence | gcPBM binding intensity (ln)
1 | AATAGTCGGGTGCATACACACCTTAAATATAATATA [CACACA_site8271] | 9.57
2 | TTATAAAATATTTATGCATGTGAAGAATATTATAAA [TGCATGCA_site1047] | 9.52
3 | GAAAAAAGTATCAAGGTGCGTATATACATCAAAATA | 9.76
4 | TTCTTACATGAGTGTACACACTTTTTTTCAGAAAAT [CACACA_site4215] | 9.81
5 | GGTGGGGAGGAGTAATGTACAAATTAACATATTATG [XGTACX_site6666] | 9.9
6 | AAATGTTGAGCAGTACAAAAAAAAAAAAAAAAAAAA [GTGCAC_negctrl_site518] | 8.66
7 | CAAAACAAAACGTATGCACACAATTAAAATATTAAA [CACACA_site5815] | 9.9
8 | TTTTTTTTTTAATTGGGTACATATATAATTTAAGAA [XGTACX_site2732] | 8.99
9 | CATTTATATAAAAGAACACACATATAAAATATTATT [CACACA_site3601] | 9.77
10 | AAGATACCAATGAAATGTACATATATATAAATATAA [XGTACX_site2135] | 9.72
11 | TATATATTATAAAATTGTACATATATTAAATTTTTT [XGTACX_site5852] | 9.32
12 | TAACTAATATATAAAACACACATCATAAAAATATAA [CACACA_site768] | 9.9
13 | TTTTGTTGAAAAGTAAGATATTCCAACATGTTTTTA [CACACA_negctrl_site391] | 9.43
14 | AGCAAAACATAAAATAGTACACATTTAACAAAAAAA [XGTACX_site2921] | 9.75
15 | TTTTATCATCTTTTTACATTATGTATAAATATTTTC [CACACA_negctrl_site206] | 9.84
16 | AAAAGAACAATGAAGTGTACTAATAATTATTTATGT [XGTACX_site6649] | 9.73
17 | ATATAATATATTTTTGAACACACAATATATATATAT [CACACA_site9368] | 9.72
18 | ACACATAAATGAATAAATAAATAAATATAAATATAA [CACACA_negctrl_site1784] | 10.1
19 | ATATCATTTTCCTGCACACATAAATTTATATAATAT [CACACA_site1048] | 9.97
20 | AATTCGTACCTCATTTGTACATATATATATATATAT [XGTACX_site5513] | 10
21 | TTTTTTATAGTACATTACCAAAAAAAAAAAAAAAAA [GTGCAC_negctrl_site549] | 8.85
22 | CATACACCCATACATACACACATACAGATATATATA [CACACA_site5123] | 10.1
23 | ATATATTGCACTTTTTGTACATAATGAAAAATTTTT [XGTACX_site8223] | 9.62
24 | TACATATTGATATATACACACAAAAAAATAAATTCT [CACACA_site6198] | 9.86
